From article PMC4336329 (PLoS ONE, 2015)
Out of some 310,000 compounds screened, about 2,200 (0.71%) showed an effect of 50% or more. The effect is printed as a negative number. This is one part of the list.

Molecular target: human ether-à-go-go-related gene (hERG) potassium channel (human, UniProt Q12809)
Assay: primary screen, population patch clamp on CHO cells stably expressing hERG

Chain of human ether-à-go-go-related gene (hERG) potassium channel (Q12809 whole entry, looked up): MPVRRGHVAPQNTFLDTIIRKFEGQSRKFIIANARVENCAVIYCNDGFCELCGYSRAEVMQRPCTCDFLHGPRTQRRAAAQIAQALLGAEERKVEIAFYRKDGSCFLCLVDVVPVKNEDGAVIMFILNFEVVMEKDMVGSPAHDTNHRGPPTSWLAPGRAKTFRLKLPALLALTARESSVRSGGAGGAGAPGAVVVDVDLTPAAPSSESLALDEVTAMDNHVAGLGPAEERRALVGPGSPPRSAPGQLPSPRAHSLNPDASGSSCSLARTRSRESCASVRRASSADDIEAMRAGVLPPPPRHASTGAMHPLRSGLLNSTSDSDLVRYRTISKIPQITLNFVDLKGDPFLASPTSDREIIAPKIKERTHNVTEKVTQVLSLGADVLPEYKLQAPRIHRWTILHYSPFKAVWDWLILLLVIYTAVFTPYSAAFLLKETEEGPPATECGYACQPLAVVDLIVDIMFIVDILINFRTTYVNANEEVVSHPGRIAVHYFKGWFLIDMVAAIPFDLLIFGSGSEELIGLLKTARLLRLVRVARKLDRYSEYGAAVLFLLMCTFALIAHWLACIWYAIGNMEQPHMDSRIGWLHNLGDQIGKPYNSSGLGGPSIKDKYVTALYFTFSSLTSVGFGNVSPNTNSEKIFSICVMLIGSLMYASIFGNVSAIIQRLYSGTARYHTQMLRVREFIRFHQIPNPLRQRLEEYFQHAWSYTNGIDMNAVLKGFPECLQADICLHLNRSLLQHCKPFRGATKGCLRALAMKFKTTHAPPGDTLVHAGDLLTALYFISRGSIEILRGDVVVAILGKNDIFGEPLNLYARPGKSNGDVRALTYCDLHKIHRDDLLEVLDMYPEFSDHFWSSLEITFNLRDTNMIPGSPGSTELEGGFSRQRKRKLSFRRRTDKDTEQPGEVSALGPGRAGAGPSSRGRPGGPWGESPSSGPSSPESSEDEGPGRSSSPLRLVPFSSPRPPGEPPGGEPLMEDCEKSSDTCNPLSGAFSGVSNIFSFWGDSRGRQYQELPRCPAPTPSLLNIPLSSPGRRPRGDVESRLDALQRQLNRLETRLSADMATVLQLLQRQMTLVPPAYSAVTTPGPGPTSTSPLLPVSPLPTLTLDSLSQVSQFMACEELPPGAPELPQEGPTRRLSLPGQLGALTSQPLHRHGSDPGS

Row | Compound | hERG current change (%, negative = inhibition) at 1uM [%]
1 | Cc1ccc(S(=O)(=O)Nc2ccc(C(=O)N3CCOCC3)cc2)cc1 | 11.9
2 | CCOC(=O)c1c(C)[nH]c(C)c1S(=O)(=O)N(C)CC(=O)Nc1ccccc1F | 12.3
3 | COC(=O)Cc1c(C)[nH]n(-c2cc(Cl)cc(Cl)c2)c1=O | 10.8
4 | CCN(CC)c1ccc(CNCCc2ccc(F)cc2)cc1.Cl | -10.4
5 | O=c1c([N+](=O)[O-])c(O)c2ccccc2n1Cc1ccccc1 | 14.5
6 | C/C(=N/NC(=O)c1ccc(C)nc1)c1ccc2c(c1)CCCC2 | -4.02
7 | COc1ccc(C2CC(=O)C(C=NCCN3CCOCC3)=C(O)C2)cc1 (stereo not drawn) | 11
8 | COC(=O)C1C2C=CC(C3CC23)C1C(=O)OCC(=O)c1ccccc1 (stereo not drawn) | 11.7
9 | Cc1cccc(C(=O)OC(C)C(=O)NC(=O)NC2CCCCC2)c1O (stereo not drawn) | 8.19
10 | Cc1sc2nc(C)n(/N=C/c3ccc(O)cc3O)c(=O)c2c1C | 3.03
11 | COc1ccc(S(=O)(=O)NC(C)C(=O)Nc2ccc3c(c2)OCCO3)cc1OC (stereo not drawn) | 9.81
12 | COc1cc(CNc2ccc3[nH]c(=O)[nH]c3c2)ccc1OCc1ccc(C)cc1 | 12.4
13 | COc1ccc(-c2nc(N)n(C(C)=O)n2)cc1 | 15.8
14 | CSCCC(NS(=O)(=O)c1ccc(Cl)cc1)C(=O)OCC(=O)NC12CC3CC(CC(C3)C1)C2 (stereo not drawn) | 17.3
15 | O=C(CSCc1ccc(Cl)cc1)Nc1ccc2c(c1)OCO2 | 8.51
16 | COc1ccccc1-n1c(C)cc(/C=C2\C(=N)N3N=C(CC(=O)N4CCOCC4)SC3=NC2=O)c1C | 18.4
17 | CC1=CC(C)=[NH+]c2ccccc2N1.O.[Cl-] | 13.3
18 | COc1ccc(OCc2nnc(SCC(=O)N(C)Cc3ccccc3)n2N)cc1 | 9.25
19 | CCOC(=O)c1cc2c(ccn2C)n1CC(=O)N1CCC(Cc2ccccc2)CC1 | 4.31
20 | COC(=O)CCN1CCN(S(=O)(=O)c2ccccc2Br)CC1.O=C(O)C(=O)O | 7.65
21 | O=C(NCCCN1CCOCC1)c1cc(-c2ccc(Br)cc2)nc2ccccc12 | -3.18
22 | CCc1c(C)sc(NC(=O)OC)c1C(=O)N1CCOCC1 | 0.475

Row | Compound | hERG current change (%, negative = inhibition) at 1uM [%]
23 | CCCOc1ccc(C(=O)Nc2ccccc2[N+](=O)[O-])cc1 | 8.01
24 | O=S(=O)(c1ccc(Br)cc1)N1CCC2(CC1)OCCO2 | 15.2
25 | Cn1ncc(Cl)c1C(=O)Nc1ccc(Cl)cn1 | 9.75
26 | COc1cc(-c2nn3c(-c4ccccc4)nnc3s2)cc(OC)c1OC | 3.29
27 | O=C(CNS(=O)(=O)c1ccc(Br)s1)NCc1ccc(F)cc1 | 1.24
28 | O=C1c2oc3ccccc3c(=O)c2C(c2cccs2)N1CCCN1CCOCC1 (stereo not drawn) | 7.4
29 | CCOc1ccc(/C=C/[N+](=O)[O-])c2ccccc12 | 5.9
30 | CC(C)(C)c1nc2ccccc2[nH]1 | 10.8
31 | COc1ccc(C2C3=C(CCCC3=O)Nc3nc(SCc4ccccc4)nn32)cc1OC (stereo not drawn) | -1.15
32 | CCc1ccc(NC(=O)C2=CC(c3cccs3)=NS(=O)(=O)N2C)cc1 | 9.92
33 | CCn1c(C)c(C)c2cc(C(=O)NCCCN3CCCC3)ccc21 | 13.5
34 | Cc1cc(=O)oc(C)c1C(=O)NC1CCCCCCC1 | 5.59
35 | CCS(=O)(=O)N1Cc2ccccc2CC1C(=O)Nc1cccc(C)c1 (stereo not drawn) | 2.72
36 | CCOC(=O)/C(=C\c1ccc(Cl)cc1)c1nc2sc(C)c(C)c2c(=O)[nH]1 | 15.9
37 | O=C(NC1CC2CCCC(C1)N2Cc1ccco1)NC12CC3CC(CC(C3)C1)C2 (stereo not drawn) | -4.75
38 | Cn1cc(Br)c(C(=O)Nc2sc3c(c2C#N)CCC3)n1 | 14
39 | O=C(COC(=O)CCCN=C1NS(=O)(=O)c2ccccc21)NNC(=O)c1ccccc1 | 7.73
40 | CCNC(=S)N1CCN(Cc2ccccc2)CC1.O=C(O)C(=O)O | -7.37
41 | Cc1noc(C)c1C(=O)Nc1c(F)cc(F)cc1Br | 3.26
42 | O=C(Oc1ccc(Br)cc1C(=S)N1CCOCC1)c1cccc([N+](=O)[O-])c1 | 16.4
43 | O=C(Nc1ccc(N2CCOCC2)cc1N1CCOCC1)c1ccc([N+](=O)[O-])cc1 | -6.01
44 | Cc1ccc(-c2cc(C(=O)N3CCN(c4ncccn4)CC3)c3cc(Br)ccc3n2)o1 | -3.49

Row | Compound | hERG current change (%, negative = inhibition) at 1uM [%]
45 | Cc1nnc(N2CCN(c3ccccc3)CC2)[nH]c1=O | 2.58
46 | COc1ccc(-n2c(SCC(=O)Nc3ccc(NC(C)=O)cc3)nc3c([nH]c4ccccc43)c2=O)cc1OC | 11.2
47 | COc1ccc(S(=O)(=O)N(Cc2ccco2)Cc2cc3ccccc3[nH]c2=O)cc1 | 10
48 | O=C(NN1C(=O)c2ccccc2C1=O)c1ccncc1 | 13.3
49 | Cc1ccc(S(=O)(=O)N2CCCOC2CNC(=O)C(=O)NCc2ccccc2C)cc1 (stereo not drawn) | 10.6
50 | Cc1cc(N2CCCCC2)ccc1[N+](=O)[O-] | 11
51 | COc1ccc(S(=O)(=O)N2CCN(C(=O)N(C)C)C2C)cc1 (stereo not drawn) | 16.8
52 | COc1ccc(C(=O)N(CN2CCCC2=O)c2ccc(C)cc2)cc1 | 3.12
53 | COc1ccc(NC(=O)CN(C)C(=O)C(C)Sc2ccccc2)cc1 (stereo not drawn) | 6.9
54 | CCNc1nc(Oc2ccc(C(=O)OCC)cc2)nc(N2CCOCC2)n1 | 8.69
55 | COCCCNc1nc2nonc2nc1N1CCN(C2CCCC2)CC1 | 10.5
56 | COc1ccc([N+](=O)[O-])cc1NC(=O)C1(c2ccccc2)CCOCC1 | 2.81
57 | CNC(=O)c1[nH]cnc1C(=O)N[C@@H](C)C(=O)OC(C)(C)C | 19.4
58 | Cc1ccc(S(=O)(=O)N/N=C2/CC(c3ccccc3)Oc3ccccc32)cc1[N+](=O)[O-] (stereo not drawn) | 14.4
59 | O=C(CSc1n[nH]c(=O)[nH]c1=O)Nc1ccc2c(c1)C(=O)c1ccccc1C2=O | 2.23
60 | Cc1cc(C)cc(OCC(=O)OCC(=O)N(C)CC(=O)Nc2ccc(F)cc2)c1 | 4.79
61 | O=C(Cn1ncc2c(=O)oc3ccccc3c21)NCC1CCCO1 (stereo not drawn) | 14
62 | Cc1cccc(C)c1OCC(O)CN1CCc2ccccc2C1.Cl (stereo not drawn) | -24.3
63 | COC(=O)COc1ccc(-c2nn(C)c(=O)c3ccccc23)cc1 | 5.27
64 | O=C(Nc1cccc(NC(=O)c2c(F)cccc2F)n1)c1c(F)cccc1F | 9.81
65 | CN(C)c1ccc(NS(=O)(=O)c2cc3c4c(c2)CC(=O)N4CCC3)cc1 | 16.6
66 | COc1ccc(S(=O)(=O)NCCc2csc(C)n2)cc1C | 7.79

Row | Compound | hERG current change (%, negative = inhibition) at 1uM [%]
67 | COC(=O)C1=C(C(=O)OC)[C@@H]2N(C)c3ccccc3[C@@]23C[C@@H](C(=O)OC)N(C(=O)c2cc(C)oc2C)C3=N1 | -3.23
68 | Cc1coc2cc3oc(=O)cc(C)c3cc12 | 11.8
69 | O=C(NNC(=O)c1ccco1)c1ccccc1 | 2.43
70 | O=C(Nc1cccnc1)C1CC(=O)N(c2ccc(F)cc2)C1 (stereo not drawn) | 18.8
71 | O=C1C(=O)N(CCN2CCOCC2)C(c2ccccc2F)/C1=C(\O)c1ccc(S(=O)(=O)N2CCOCC2)cc1 (stereo not drawn) | 11.4
72 | CCCCCCSc1ccc([C@H]2N[C@@](C)(C(=O)OC)[C@H]3C(=O)N(C)C(=O)[C@@H]23)cc1.O=C(O)C(F)(F)F | 3.72
73 | CC(C)n1c(Oc2ccc(F)cc2)nc2c1c(=O)n(C)c(=O)n2C | -0.311
74 | O=C(Cn1nnc(-c2ccncc2)n1)N1CCc2ccccc21 | 18.3
75 | OC(CCN1CCCCC1)c1ccc(-c2ccccc2)cc1 (stereo not drawn) | -4
76 | O=C(COC(=O)COc1ccccc1)Nc1cccc([N+](=O)[O-])c1 | 12
77 | COc1ccc(-c2cc(=O)oc3cc(OC(C)C(=O)NC4CC4)ccc23)cc1 (stereo not drawn) | 11.3
78 | Cc1cccc(OCc2nnc(SCC(=O)Nc3cccc(C(=O)N4CCOCC4)c3)o2)c1C | 6.86
79 | COc1ccc(N(CC(=O)NCc2ccc(F)cc2)S(=O)(=O)c2c(C)noc2C)cc1 | 7.44
80 | Cc1cccc(-n2ncc(C#N)c2N)c1 | 16.8
81 | CN(C)S(=O)(=O)c1cccc(C(=O)OCC(=O)c2c(N)n(C)c(=O)n(C)c2=O)c1 | 3.79
82 | CSc1ccccc1NC(=O)c1ccc([N+](=O)[O-])cc1 | 2.08
83 | CCN(CC)C(=O)CSc1nnc2sc3ccccc3n12 | 12.8
84 | CC(=O)c1cc2c(cc1N(C(=O)c1ccco1)C(C(=O)NC1CCCC1)c1ccccc1F)OCO2 (stereo not drawn) | 13.2
85 | Cc1cc(C(=O)NNC(=O)CN2C(=O)NC3(CCCCC3)C2=O)c(C)o1 | 12.4
86 | CCOc1ccc2cc(C3CC(c4ccco4)=NN3S(=O)(=O)c3ccccc3)c(Cl)nc2c1 (stereo not drawn) | 8.7
87 | O=C(NC(=S)Nc1nc(-c2cccc([N+](=O)[O-])c2)cs1)c1ccccc1Cl | 9.48
